The values below come from patent US20260226189A1 (PHILOGEN S P A, published 2026).

The target of the assay is T1, human CEA (N-terminal domain) recombinant fragment containing a C-terminal 6xHis tag and a N-terminal BirA … (human, site specifically biotinylated using BirA (E. coli biotin ligase) at the BirA target sequence).
T1 construct: Expressed in CHO-S cells and immobilised on a streptavidin chip for all BIAcore runs; also called biotinylated CEA; human CEA N-terminal fragment
T1 chain: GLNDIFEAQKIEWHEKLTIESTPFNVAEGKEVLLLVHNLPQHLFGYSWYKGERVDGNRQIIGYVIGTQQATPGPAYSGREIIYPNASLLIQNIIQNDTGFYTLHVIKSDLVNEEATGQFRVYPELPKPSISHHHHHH
Kind of assay: SPR (BIAcore X100), monomeric scFv over biotinylated CEA N-terminal domain on streptavidin chip. (Surface plasmon resonance follows binding to a sensor surface in real time, without labels.)

B1: G9 antibody in scFv format (scFv)
scFv: [about 100 residues omitted here]LTYARFDYWGQGTLVTVSSGGGGSGGGGSGGGGEIVLTQSPGTLSLSPGERATLSCRASQSVSSSYLAWYQQKPGQAPRLLIYGASSRATGIPDRFSGSGSGTDFTLTISRLEPEDFAVYYCQQSGRVPWTFGQGTKVEIK
notes: also called G9 scFv
For B1, the dissociation constant (Kd) (commonly a measure of binding affinity in units of concentration) stood at 640 nM.
